# Measured values taken from publication PMC4336329 (PLoS ONE, 2015).
# In all, about 310,000 compounds went through this assay and about 2,200 (0.71%) showed an effect of 50% or more. The effect is printed as a negative number. The list shows a part of the results.
# Target: human ether-à-go-go-related gene (hERG) potassium channel (human, UniProt Q12809)
# Experiment: primary screen, population patch clamp on CHO cells stably expressing hERG
# Chain of human ether-à-go-go-related gene (hERG) potassium channel (Q12809 whole entry, looked up): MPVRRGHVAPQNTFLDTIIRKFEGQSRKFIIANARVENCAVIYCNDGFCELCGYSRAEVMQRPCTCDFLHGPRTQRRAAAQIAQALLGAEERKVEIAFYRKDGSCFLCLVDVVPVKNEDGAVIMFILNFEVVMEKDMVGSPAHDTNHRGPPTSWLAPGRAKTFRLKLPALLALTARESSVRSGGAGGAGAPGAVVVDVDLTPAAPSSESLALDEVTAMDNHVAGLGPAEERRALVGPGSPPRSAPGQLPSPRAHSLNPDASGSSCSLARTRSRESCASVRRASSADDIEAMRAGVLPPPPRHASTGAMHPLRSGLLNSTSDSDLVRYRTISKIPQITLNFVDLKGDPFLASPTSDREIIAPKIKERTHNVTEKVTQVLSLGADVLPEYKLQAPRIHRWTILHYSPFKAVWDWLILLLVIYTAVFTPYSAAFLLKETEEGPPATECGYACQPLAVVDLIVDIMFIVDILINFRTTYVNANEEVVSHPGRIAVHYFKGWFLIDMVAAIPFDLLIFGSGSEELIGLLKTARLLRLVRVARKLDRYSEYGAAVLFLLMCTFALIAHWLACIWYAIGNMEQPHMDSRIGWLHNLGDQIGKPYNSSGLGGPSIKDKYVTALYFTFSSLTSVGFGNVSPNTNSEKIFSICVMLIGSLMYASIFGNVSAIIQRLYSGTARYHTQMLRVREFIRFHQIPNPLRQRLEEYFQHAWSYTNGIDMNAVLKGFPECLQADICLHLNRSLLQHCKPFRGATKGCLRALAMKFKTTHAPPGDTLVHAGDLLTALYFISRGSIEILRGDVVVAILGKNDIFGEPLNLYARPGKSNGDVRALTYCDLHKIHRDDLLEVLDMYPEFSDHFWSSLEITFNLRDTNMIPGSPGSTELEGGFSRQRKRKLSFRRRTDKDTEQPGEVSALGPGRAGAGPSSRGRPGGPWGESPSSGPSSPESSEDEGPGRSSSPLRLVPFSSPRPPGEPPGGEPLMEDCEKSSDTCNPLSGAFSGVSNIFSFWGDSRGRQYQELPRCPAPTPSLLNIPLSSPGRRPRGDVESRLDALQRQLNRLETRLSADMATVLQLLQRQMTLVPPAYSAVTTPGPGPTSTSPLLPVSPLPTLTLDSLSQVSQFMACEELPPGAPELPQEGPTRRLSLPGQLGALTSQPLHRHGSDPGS
row,Compound,"hERG current change (%, negative = inhibition) at 1uM [%]"
1,CCN(Cc1ccccc1)S(=O)(=O)c1ccc(C(=O)N(CCCN(C)C)c2nc3cc(C)cc(C)c3s2)cc1.Cl,3.79
2,C=CCNC(=S)NNC(=O)c1cc(O)ccc1O,11.7
3,O=C(CC12CC3CC(CC(C3)C1)C2)Nc1c(F)cccc1F,15.1
4,CCc1ccc2oc(C(=O)Nc3ccc(S(N)(=O)=O)cc3)c(C)c2c1,17.8
5,O=C1C2C(C(=O)N1CC1CCCO1)C1C=CC2C12CC2 (centres unmarked),2.77
6,CCc1nnc(NC(=O)CSc2nnc(-c3cccnc3)n2CC)s1,13.5
7,CCOC(=O)N1CCN(S(=O)(=O)c2cccc3nonc23)CC1,-4.31
8,Cc1cccc(NC(=O)CC2SC(=NC3CCCCC3)NC2=O)c1 (centres unmarked),11.6
9,Cl.OC(COCc1ccccc1)CN1CCCC1 (centres unmarked),1.21
10,CCCc1cc(=O)[nH]c(SCC(=O)NC)n1,-0.511
11,Cl.NCCN1C(=O)S/C(=C\c2ccc3c(c2)OCO3)C1=O,4.94
12,O=C(NC1CCCN(C2Cc3ccccc3C2)C1)c1ccc(F)cc1Cl (centres unmarked),-72.9
13,CC1CCN(C(=O)CSc2nc3ccccc3c(=O)[nH]2)CC1,3.31
14,Cc1cccc(NC(=O)CCN2CCN(C)CC2)c1.Cl,14.1
15,CC(C)(C)c1nc(NCc2ccc3c(c2)OCO3)c2nnn(Cc3ccccc3Cl)c2n1.Cl,18.3
16,O=C(NCc1ccc(F)cc1)c1cc2sccc2n1Cc1ccc(F)cc1,18.6
17,C/C(=N/NC(=O)c1ccc(O)cc1)c1cccc([N+](=O)[O-])c1,9.78
18,COC(=O)c1ccc(-c2ccc(/C=N/N3C(=O)C4C5C=CC(CC5)C4C3=O)o2)cc1 (centres unmarked),9.56
19,O=C(c1cccc(COc2ccc(Cl)cc2Cl)c1)N1CCN(c2ccccn2)CC1,-4.37
20,CCCCN(C)C(=O)c1c[nH]c2ccc(S(=O)(=O)N3CCOCC3)cc2c1=O,14.9
21,CC(C)[C@H](NC(=O)c1ccccc1F)C(=O)Nc1ccc2c(c1)OCO2,10.7
22,NC(=O)c1nn(CC(=O)Nc2cccc(S(=O)(=O)N3CCCCCC3)c2)c(=O)c2ccccc12,0.662

row,Compound,"hERG current change (%, negative = inhibition) at 1uM [%]"
1,CC(C)Sc1nc2ccccc2n1CC(=O)O,5.17
2,Cc1ccc(NC(=O)c2cc([N+](=O)[O-])ccc2N2CCCC2)cc1,6.31
3,Cn1cnnc1SCNC(=O)C(F)(F)F,11.4
4,CCCCNC(=O)C(CC)(ONc1ccccc1C(F)(F)F)c1ccccc1 (centres unmarked),8.92
5,CCOc1ccccc1CN1CCN(Cc2csc(C(C)=O)c2)CC1CCO (centres unmarked),-3.65
6,CC(C)[C@@H]1NC(=O)c2cc([N+](=O)[O-])cc(I)c2NCCC[C@@H](C(N)=O)NC(=O)[C@H](CO)NC1=O,8.46
7,CCn1c(=N)n(CC(=O)c2cccc(OC)c2)c2ccccc21,5.01
8,Cc1cc(C)c(NC(=O)Cn2c(=O)n(-c3ccc(CC(=O)NCC4CCCO4)cc3)c(=O)c3ccccc32)c(C)c1 (centres unmarked),13
9,CCCNC(=O)NC(=O)CN1C(=O)NC(C)(c2ccc(C)cc2)C1=O (centres unmarked),5.48
10,COc1cc(OC)cc(N2C(=O)CSCC2=O)c1,8.03
11,CCCCNC(=O)C(=O)c1ccccc1NC(C)=O,4.61
12,COc1ccc(C2CC(c3ccccc3)=NN2c2ccc(/C=N/NC(=O)c3ccncc3)cc2)cc1 (centres unmarked),6.38
13,CCN(CC)S(=O)(=O)c1cccc(C(=O)NCC2CCCO2)c1 (centres unmarked),7.81
14,O=C(c1ccccc1)N1N=C(c2cccs2)CC1c1ccccc1O (centres unmarked),12.1
15,CCOC(=O)C1=NNC2C(=O)N(C3CCCCC3)C(=O)C12 (centres unmarked),10.7
16,O=C(NC1CCSc2ccccc21)c1ccc([N+](=O)[O-])cc1 (centres unmarked),-6.81
17,CCOc1cc(C(=O)NC(C)CC)cc(OCC)c1OCC (centres unmarked),13.9
18,COc1cccc(OP(=O)(Nc2ccccc2)Oc2cccc(OC)c2)c1,10.4
19,Cc1ccc(CNC(=O)/C=C/C(=O)O)cc1,-7.48
20,CCCN1CCN(C(=O)C2CCCN(c3ncnc4c3nc3n4CCCCC3)C2)CC1 (centres unmarked),0.737
21,COc1ccc(N2CCN(C(=O)C(C)(C)Oc3ccc(Cl)cc3)CC2)cc1,13.9
22,CN=C1S/C(=C\c2ccc(N3CCCC3)c(F)c2)C(=O)N1C,9.3
